Test results published in the supplement of paper PMC11417369.
± gives the standard deviation of the averaged measurements. The list shows a part of the results.

System: PfAP2-G AP2 domain (GST-tagged)
Assay: gcPBM binding intensity (ln(normalized median fluorescence intensity)); higher = stronger DNA binding
In short: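 Binding intensity values are the highest Masliner-normalised natural-log median intensity among replicate spots of either probe orientation. The binding step lasted 1 h in 1× PBS with 1% milk, 0.2 mg/ml BSA, 0.5% salmon testes DNA and 0.03% Triton X-100, using GST-tagged P. falciparum DNA-binding domains expressed in E. coli on an Agilent 4 × 180k array of primer-extended double-stranded 36-bp intergenic genomic probes plus negative controls. Alexa488 anti-GST antibody and a 488 nm scan detected bound protein.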

Row | Sequence | gcPBM binding intensity (ln)
1 | ATTAGTAAATTTATATGTACACATTGTTATTTTATA [XGTACX_site1177] | 11.5 ± 0.99
2 | ACATTTACAAGGAAAGTGCATATAAGAAAAATAAAA [GTGCAC_site9587] | 10.2 ± 0.17
3 | TAATGAATTTAAATTTTAAAATTAATAAAAAAAATA [TGCATGCA_negctrl_site15] | 9.96 ± 0.19
4 | CAAAATGTTTCTCATTGTACACAAAATAAATGTCCT [XGTACX_site6798] | 11.5 ± 1.1
5 | TTTTATATTTTATGCACACTTATAAGAAATATGTAC [CACACA_site3040] | 11 ± 0.54
6 | TTATTCATTTTTATTTGTACATAATTATATGAAATT [XGTACX_site6389] | 10.9 ± 0.49
7 | ATTTTTTTTTATGATACACACTTGGATAATTAAAAC [CACACA_site4473] | 10.3 ± 0.36
8 | TATTTATTAAAACACACACACACACCCACAAAATAA [CACACA_site241] | 10.5 ± 0.51
9 | TTATGTATTCATTTTTTTTAAGCACCCCAAAATGAT [CACACA_negctrl_site1344] | 10.8 ± 0.66
10 | ATAATATATATATAAACACACAAAAAAAATTATATA [CACACA_site1534] | 10.045 ± 0.007
11 | CAAAATAAAAATAACACACACATTTATTTATATACA [CACACA_site6679] | 9.87 ± 0.057
12 | ATATATGTATATTTATGTACGTATTCCTGTATAGTC [XGTACX_site5763] | 11.5 ± 0.85
13 | TTATTTTCCCTTTGTGCATGCAGTTTACTTTTTGTG [TGCATGCA_site993] | 10.4 ± 0.28
14 | ACACATATATTAAATGTGCACTGAAATATGCATATA [GTGCAC_site9936] | 10.2 ± 0.16
15 | ACTTGTAAGAGACACACACACACACGGATATAAATA [CACACA_site6517] | 10.3 ± 0.3
16 | GGAAAAAAAAATAAATGTACGAATTAACATATCAAA [XGTACX_site5653] | 10.8 ± 0.48
17 | ACACAAGCACACAAATGTACATATATATATATATAT [XGTACX_site5146] | 11 ± 0.57
18 | ATTAAACCGTGGGAGCACACACACACACACACACAT [TGCATGCA_negctrl_site72] | 10.6 ± 0.26
19 | TGTTGTATCAATTTTTGTACATAACACATATGTATA [XGTACX_site3666] | 11 ± 0.47
20 | ATTAATTAAAAGGGAACACATAGAAATTATAAAACA [GTGCAC_negctrl_site420] | 10.21 ± 0.057
21 | ATATATATATTATGGGGTACAAACATCAAAAGATTT [XGTACX_site3944] | 11.4 ± 0.9
22 | GTAACATTTTAAATATATACATATAATGTATTTATA [GTGCAC_negctrl_site344] | 9.675 ± 0.035

Row | Sequence | gcPBM binding intensity (ln)
23 | GGCCCAACTTCTTCTGACGAAAACGTAAATTGTGTG [XGTACX_negctrl_site533] | 10.14 ± 0.099
24 | AATCATATTAGTATGGTGCAACATATATAAATATAT | 10 ± 0.24
25 | TTCAAGATTTATTATACACACATATTAATATTTATA [CACACA_site6413] | 9.96 ± 0.2
26 | TGTGTAGGGGATATTCTACTTTAAAAATAAATATAT [CACACA_negctrl_site207] | 10.3 ± 0.4
27 | TATAAAAGATTGGAATGTACATAAGAAAAAAATATA [XGTACX_site5028] | 11.1 ± 0.52
28 | TTGTTAAAAGTATCCATTCTTTATTACTTTTGTTTA [XGTACX_negctrl_site532] | 10.4 ± 0.29
29 | ATTGGGTACAAATACACACACATATATATATTAATA [CACACA_site2376] | 11.3 ± 0.92
30 | TGTACCTTATTAATATATTTAACTCGCCTTATATAC [XGTACX_negctrl_site289] | 10.6 ± 0.32
31 | TCGTAAACATATTGAAAAATATAAAAAGGGGTAATA [CACACA_negctrl_site619] | 9.74 ± 0.12
32 | AATGGTATAATCAATACACACATAATATATATATTG [CACACA_site1658] | 10.1 ± 0.18
33 | TTAAGATATGTATATCGTACATGACATTAAAAATTT [XGTACX_site3352] | 10.6 ± 0.52
34 | AAATAAATACACATATGTACATATTTTATTTTATTT [XGTACX_site2357] | 11.3 ± 0.68
35 | TAAAAAAAATACAAAAGTACACAAAATTATACGTTA [XGTACX_site4656] | 11.5 ± 0.96
36 | AAATTGTAGCACCAAGCATGCTAAAAGGACATATGA [TGCATGCA_site717] | 10.8 ± 0.34
37 | CAAATATAAATATATACATGCATCTATCTATATAAA [TGCATGCA_site369] | 9.665 ± 0.078
38 | AATCAAAAATCAAACGCATGTAGTATAATAGATAAG [TGCATGCA_site753] | 10.11 ± 0.099
39 | AAGATTAAAAATTGCACACAAAAATATATTTTCTAT [CACACA_site1305] | 10.04 ± 0.028
40 | TATAATTTATTAAGGGGTACATATATTTCATGATAA [XGTACX_site5141] | 11.6 ± 0.81
41 | AAATTATATCATTTATTTTTTTATATTTTTTATATT [CACACA_negctrl_site685] | 9.53 ± 0.22
42 | AATTTCCTTTTTTAAAGTACACAAAAGTTCACTTTG [XGTACX_site4460] | 11.6 ± 0.98
43 | AAAAAAAAAAATATCACACACACATAAATATAAACC [CACACA_site2278] | 10.18 ± 0.057
44 | AAATTATATCAATGTTGTACATATTATTTTTTTCTC [XGTACX_site5948] | 11.1 ± 0.56

Row | Sequence | gcPBM binding intensity (ln)
45 | TAGTATAAAATTATGTGTACACAAATATAACTTTTC [XGTACX_site5971] | 11.6 ± 0.78
46 | AAAAAAAAAAAAAGGTGTACAAGTATAATTACATAA [XGTACX_site534] | 11.5 ± 0.95
47 | TATTTATTGTGATACTTTTATTGTTTAATGATTAAA [CACACA_negctrl_site495] | 10.3 ± 0.14
48 | TGGAGGTCAGTTCACAGTACCCAGAAACTCTACGGA [XGTACX_site4927] | 11 ± 0.71
49 | GGAATAGTAATATATACACACAAATACAGATATATA [CACACA_site4213] | 10.2 ± 0.26
50 | AATTGAATTTTAAAAGAAAAAAAAAAAAAAAAATAA [XGTACX_negctrl_site195] | 9.66 ± 0.18
51 | TAATGTAAAATTTAGAGTACATAAAAAATTGGATGA [XGTACX_site7225] | 11.5 ± 0.86
52 | AAATAAAAAAAGAAACGTACATATATTGGTTTCGTC [XGTACX_site3510] | 11.2 ± 0.65
53 | AAACTATAATATATTACACACATATATTTTATAAGT [CACACA_site6460] | 9.93 ± 0.11
54 | TTTTTTCAATTTTTTTTAAATAAACCACAAAAAAAA [CACACA_negctrl_site1701] | 10.2 ± 0.41
55 | AACATACATAAACACACACACACACCCACAGAGACA [CACACA_site4430] | 10.2 ± 0.23
56 | AAAAAAATAAGTATTGAACAATTAAGGAAAAACATG [GTGCAC_negctrl_site464] | 10.285 ± 0.007
57 | CTTATAAAAAAAAAAACATGCAACAGTAAAGAACAA [TGCATGCA_site892] | 10.1 ± 0.014
58 | GGTAATTTTTTTTAAATACACACTGAAATGTGAATT [CACACA_site564] | 9.965 ± 0.021
59 | CATACAGATATATATACACACATACAGATAAATACA [CACACA_site4592] | 10 ± 0.13
60 | ATATATTATATAATATGTACATAATAAAATTTAAAT [XGTACX_site1900] | 11.2 ± 0.59
61 | TTTTTATTTATATATATATATATATATTATATATAA [CACACA_negctrl_site1654] | 9.69 ± 0.15
62 | ATCTAAATAATATATATATATAATATTAATAATATA [CACACA_negctrl_site1620] | 9.69 ± 0.2
63 | GAGTAAACATATATATGTACATAAAGTTAACATTGC [XGTACX_site2225] | 11.1 ± 0.52
64 | ATTTTTTTTCATATAACACACACACTAATATAATGT [CACACA_site9226] | 10.4 ± 0.32
65 | TGAACACCCACAAATACACACAAAAAAAATAAATAA [CACACA_site248] | 10.2 ± 0.28
66 | CTTGTCATTGGGCACACACACATGTATAGGTTATTA [CACACA_site3058] | 10.7 ± 0.39

Row | Sequence | gcPBM binding intensity (ln)
67 | AATAAATAAATATATACACACATATCTGTCTACATA [CACACA_site5708] | 9.74 ± 0.15
68 | ACAAGATCTAGATACACACACATATCTCTCAATCTA [CACACA_site6453] | 10.04 ± 0.092
69 | AATAATTGAAAAACACAAAAATGATTTTCCATAAAT [CACACA_negctrl_site1555] | 9.56 ± 0.13
70 | GTAAAAAAATAGCACACACACAAAAACACGCACAAA [CACACA_site6723] | 10.7 ± 0.53
71 | GGGACAGGACGAAAAAATAAATAAATAAATAAAAAA [CACACA_negctrl_site155] | 10.1 ± 0.37
72 | AGGAAAAACTTGAATGCATGCGCACATTCTAGTTTG [TGCATGCA_site776] | 9.9 ± 0.11
73 | TATTATTACGTAATATGTACATATATTTATACCACT [XGTACX_site5918] | 11.2 ± 0.52
74 | AAAAATATATATAACACACACATAATATATATATAT [CACACA_site2537] | 10.1 ± 0.45
75 | TTATAACACATTACATGTACAAATATAAATATATTC [XGTACX_site6503] | 10.7 ± 0.48
76 | TTTTTTTTTGTTTACACACACAAAATATTATATGTA [CACACA_site2470] | 9.95 ± 0.042
77 | AAAAAAAAAAAAAAATGTACAAAAATTACTATAAAA [XGTACX_site7683] | 10.8 ± 0.54
78 | TATTTTTTTTTTATATGTACATAATTTCAAATAAAT [XGTACX_site7747] | 11.4 ± 0.83
79 | AAGGATATAACATACACACACACACCGATATATATA [CACACA_site6136] | 9.94 ± 0.14
80 | AAAATTATATATTATTGTACATAAAATTTTGACATA [XGTACX_site4886] | 11 ± 0.59
81 | ATAACGATATATGTGCGTACTTATAGAATAAGCAAA [XGTACX_site6743] | 11.3 ± 0.98
82 | ATATATCATATTATAGTGCATTTATAATAATATTAT | 9.93 ± 0.16
83 | TATTATCTGTAGTGTACACATATTATATAGTACTTT [CACACA_site4582] | 11.8 ± 1
84 | CAATAGTTCTTATGGGTGCAAACCACATATATATAA [GTGCAC_site9606] | 10.4 ± 0.23
85 | ATAAATACTAGGCACACACACATATATATATATATA [CACACA_site2080] | 10.4 ± 0.49
86 | ATATATATATATATATGTACATATATGTATACCTTA [XGTACX_site6791] | 11.2 ± 0.78
87 | TATATATATATATAAGTGCATATAAAAATCGTTCGT | 10.2 ± 0.26
88 | ATATATATATAATAAACACACACATATACATATATG [CACACA_site9145] | 10.18 ± 0.099
